The antibiotic and cytotoxicity screens of Wong et al. (2023)
The other results are listed elsewhere or left out.

Tests used:
[1] = test system: HSkMC (human skeletal muscle cells); test: cytotoxicity call (relative viability < 0.9); settings: 10 µM
[2] = test system: S. aureus RN4220; test: growth inhibition call (relative growth <= 0.2); settings: 50 µM

C[C@H](CO)N1C[C@H](C)[C@H](CN(C)Cc2ccc(C(=O)Nc3ccccc3N)cc2)Oc2c(NS(C)(=O)=O)cccc2C1=O was tested, and the cytotoxicity call [1] was “inactive” and the growth inhibition call [2] was “inactive”.
COc1ccc(NC(=O)N(C)C[C@H]2OCCCC[C@H](C)Oc3ccc(NS(=O)(=O)c4cccs4)cc3C(=O)N([C@H](C)CO)C[C@@H]2C)cc1 was tested, and the cytotoxicity call [1] was “inactive” and the growth inhibition call [2] was “inactive”.
With C[C@@H]1CN([C@@H](C)CO)C(=O)c2cc(C#CCN(C)C)cnc2O[C@H]1CN(C)Cc1ccc(C(=O)O)cc1 the cytotoxicity call [1] was “inactive” and the growth inhibition call [2] was “inactive”.
With COCCCOc1ccnc(CS(=O)c2nc3ccccc3[n-]2)c1C.[Na+] (stereo not given) the cytotoxicity call [1] was “inactive” and the growth inhibition call [2] was “inactive”.
For C[C@H](CO)N1C[C@H](C)[C@@H](CN(C)S(=O)(=O)c2cn(C)cn2)Oc2c(NC(=O)Nc3ccccc3)cccc2C1=O, the cytotoxicity call [1] was “inactive” and the growth inhibition call [2] was “inactive”.
For Cc1cc(C(=O)Nc2cccc3c2O[C@@H](CN(C)Cc2ccc4c(c2)OCO4)[C@@H](C)CN([C@@H](C)CO)C3=O)n(C)n1, the cytotoxicity call [1] was “inactive” and the growth inhibition call [2] was “inactive”.
CCOc1nc(N2CCOCC2)nc(N2CCOCC2)n1 was tested, and the cytotoxicity call [1] was “inactive” and the growth inhibition call [2] was “inactive”.
In the case of C[C@@H]1CN([C@H](C)CO)C(=O)c2cc(NC(=O)C3CC3)ccc2O[C@@H]1CN(C)S(=O)(=O)c1cn(C)cn1, the cytotoxicity call [1] is reported as “inactive” and the growth inhibition call [2] is reported as “inactive”.
For CN1CCN(C(=O)C[C@@H]2CC[C@H]3[C@@H](COc4ccc(NC(=O)C5CCOCC5)cc4C(=O)N3C)O2)CC1, the cytotoxicity call [1] was “inactive” and the growth inhibition call [2] was “inactive”.
In the case of C[C@@H]1CCCCO[C@H](CN(C)C(=O)Nc2ccc(C(F)(F)F)cc2)[C@H](C)CN([C@H](C)CO)C(=O)c2cc(NS(=O)(=O)c3cn(C)cn3)ccc2O1, the cytotoxicity call [1] is reported as “inactive” and the growth inhibition call [2] is reported as “inactive”.
With C[C@@H]1CN([C@@H](C)CO)C(=O)c2cccc(NC(=O)c3ccc(-c4nccs4)cc3)c2O[C@H]1CN(C)C(=O)Nc1ccc2c(c1)OCO2 the cytotoxicity call [1] was “inactive” and the growth inhibition call [2] was “inactive”.
In the case of C=CCOC(=O)[C@H]1[C@@H]2C(=O)O[C@@H](c3ccccc3)[C@@H](c3ccccc3)N2[C@@H](c2ccc(OCCOC(=O)[C@@H]3C[C@@H]4C(=O)N5CCC[C@H]5C(=O)N4[C@@H]3c3cccc(OCCO)c3)cc2)[C@]12C(=O)Nc1ccc(I)cc12, the cytotoxicity call [1] is reported as “inactive” and the growth inhibition call [2] is reported as “inactive”.
With NC(=O)NCC#Cc1ccc2c(c1)[C@]1(C(=O)N2)[C@H](C(=O)N2CCCCCCC2)[C@H]2C(=O)O[C@H](c3ccccc3)[C@H](c3ccccc3)N2[C@@H]1c1ccccc1OCCO the cytotoxicity call [1] was “inactive” and the growth inhibition call [2] was “inactive”.
In the case of C[C@@H]1CN([C@@H](C)CO)C(=O)c2cccc(NS(=O)(=O)c3cccs3)c2O[C@@H]1CN(C)S(C)(=O)=O, the cytotoxicity call [1] is reported as “inactive” and the growth inhibition call [2] is reported as “inactive”.
In the case of C[C@@H]1CCCCO[C@H](CN(C)C(=O)Nc2cccc3ccccc23)[C@H](C)CN([C@@H](C)CO)C(=O)c2cc(NC(=O)c3ccncc3)ccc2O1, the cytotoxicity call [1] is reported as “inactive” and the growth inhibition call [2] is reported as “inactive”.
In the case of COc1ccc2c3c([nH]c2c1)[C@H](CO)N(C[C@]13CCN(CC1)Cc1cc(on1)-c1ccccc1)C(=O)Nc1ccc(cc1)F, the cytotoxicity call [1] is reported as “active” and the growth inhibition call [2] is reported as “inactive”.
C[C@@H]1CCCCO[C@@H](CN(C)Cc2ccc(C(=O)O)cc2)[C@@H](C)CN([C@@H](C)CO)C(=O)c2cc(NS(=O)(=O)c3ccc(F)cc3)ccc2O1 was tested, and the cytotoxicity call [1] was “inactive” and the growth inhibition call [2] was “inactive”.
C=C(C)C1=NC(C)(C)C[C@H](C)O1 was tested, and the cytotoxicity call [1] was “inactive” and the growth inhibition call [2] was “inactive”.
With C[C@H](CO)N1C[C@H](C)[C@H](CN(C)S(=O)(=O)c2ccc(C#N)cc2)Oc2ncc(C#CC(C)(C)O)cc2C1=O the cytotoxicity call [1] was “inactive” and the growth inhibition call [2] was “inactive”.
For C[C@@H]1CCCCO[C@@H](CN(C)Cc2ccc(C(F)(F)F)cc2)[C@H](C)CN([C@H](C)CO)C(=O)c2cc(NS(=O)(=O)c3ccc(F)cc3)ccc2O1, the cytotoxicity call [1] was “inactive” and the growth inhibition call [2] was “inactive”.
For O=C(C[C@@H]1CC[C@H]2[C@@H](COC[C@H](O)CN2S(=O)(=O)c2ccccc2F)O1)NCc1ccccc1Cl, the cytotoxicity call [1] was “inactive” and the growth inhibition call [2] was “inactive”.
In the case of CC(C)NC(=O)Nc1ccc2c(c1)CC(=O)N([C@H](C)CO)C[C@H](C)[C@H](CN(C)C(=O)NC1CCCCC1)O2, the cytotoxicity call [1] is reported as “inactive” and the growth inhibition call [2] is reported as “inactive”.
For C[C@H]1CN([C@@H](C)CO)C(=O)c2cc(NC(=O)Cc3ccccc3)ccc2O[C@H]1CN(C)S(=O)(=O)c1cccs1, the cytotoxicity call [1] was “inactive” and the growth inhibition call [2] was “inactive”.
For Cc1noc(C)c1NC(=O)Nc1ccc2c(c1)C(=O)N([C@@H](C)CO)C[C@H](C)[C@@H](CN(C)C(=O)C1CCCCC1)OCCCC[C@@H](C)O2, the cytotoxicity call [1] was “inactive” and the growth inhibition call [2] was “inactive”.
For COc1ccc([Si](C)(C)[C@H]2[C@H](CCO)O[C@@]3(C(=O)N(Cc4ccccc4)c4ccc(N5CCCCC5=O)cc43)[C@@H]2C)cc1, the cytotoxicity call [1] was “inactive” and the growth inhibition call [2] was “inactive”.
